# Hit rate of the full screen: of about 310,000 compounds, about 14,000 (4.5%) showed an effect of 50% or more. The effect is printed as a negative number. The list shows a part of the results.
# Target: human ether-à-go-go-related gene (hERG) potassium channel (human, UniProt Q12809)
# Assay: primary screen, population patch clamp on CHO cells stably expressing hERG
# 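Note: peak tail current of the secondary pulse compared with the same well before compound.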
# human ether-à-go-go-related gene (hERG) potassium channel, sequence (Q12809 whole entry, looked up): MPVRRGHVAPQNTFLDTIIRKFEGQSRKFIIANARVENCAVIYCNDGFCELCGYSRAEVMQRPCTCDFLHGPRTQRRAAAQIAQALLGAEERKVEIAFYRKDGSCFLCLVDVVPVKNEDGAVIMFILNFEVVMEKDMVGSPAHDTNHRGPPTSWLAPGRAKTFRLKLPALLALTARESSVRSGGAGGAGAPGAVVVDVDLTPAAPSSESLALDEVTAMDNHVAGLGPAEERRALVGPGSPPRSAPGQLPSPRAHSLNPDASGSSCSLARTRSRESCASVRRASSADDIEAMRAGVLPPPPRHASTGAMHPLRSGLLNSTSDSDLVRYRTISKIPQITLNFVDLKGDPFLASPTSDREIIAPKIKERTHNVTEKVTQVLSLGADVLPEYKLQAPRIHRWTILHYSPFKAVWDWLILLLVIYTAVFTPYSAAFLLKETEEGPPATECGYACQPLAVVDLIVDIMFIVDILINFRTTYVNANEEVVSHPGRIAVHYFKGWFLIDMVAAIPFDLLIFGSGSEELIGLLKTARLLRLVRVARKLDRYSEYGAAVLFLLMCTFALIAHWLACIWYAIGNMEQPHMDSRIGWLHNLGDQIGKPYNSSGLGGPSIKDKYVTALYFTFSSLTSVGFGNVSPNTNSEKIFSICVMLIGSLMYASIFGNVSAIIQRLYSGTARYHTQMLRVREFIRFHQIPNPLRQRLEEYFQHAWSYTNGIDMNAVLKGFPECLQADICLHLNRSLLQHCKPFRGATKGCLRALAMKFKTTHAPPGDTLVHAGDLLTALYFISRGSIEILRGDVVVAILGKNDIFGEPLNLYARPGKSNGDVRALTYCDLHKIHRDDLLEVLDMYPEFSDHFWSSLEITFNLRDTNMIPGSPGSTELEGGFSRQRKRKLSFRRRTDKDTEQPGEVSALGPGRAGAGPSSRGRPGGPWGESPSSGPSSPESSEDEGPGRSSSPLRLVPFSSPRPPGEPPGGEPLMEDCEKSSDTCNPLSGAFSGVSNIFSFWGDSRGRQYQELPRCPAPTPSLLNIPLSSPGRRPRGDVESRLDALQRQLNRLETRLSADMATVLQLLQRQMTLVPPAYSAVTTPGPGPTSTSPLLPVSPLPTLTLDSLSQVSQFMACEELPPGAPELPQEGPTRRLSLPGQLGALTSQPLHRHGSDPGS
row,SMILES,"hERG current change (%, negative = inhibition) at 10uM [%]"
1,Cn1ccc(C(=O)Nc2sc3c(c2C#N)CCC3)n1,16
2,Cc1ccc(S(=O)(=O)N(C)CC(=O)OCC(=O)NC(c2ccccc2)c2ccccc2)cc1,1.8
3,CCCN(CC#CCOc1ccc(OC)cc1)CCC.O=C(O)C(=O)O,-25.2
4,Cn1ccnc1C(=O)c1ccc(NN)c([N+](=O)[O-])c1,11.7
5,NS(=O)(=O)c1ccc(CCNC(=O)COC(=O)Cc2ccc([N+](=O)[O-])cc2)cc1,-30.5
6,CC(C)c1ccc(/C=C(/C#N)c2nnc(NC(=O)c3ccccc3)s2)cc1,7.09
7,COC(=O)[C@H](Cc1ccccc1)NC(=O)N1CCC(C)CC1,12.8
8,O=C(CC1CCCC1)Nc1nnc(C2CC2)s1,5.26
9,O=C(CS(=O)(=O)c1ccccc1)Nc1ccc(S(=O)(=O)Nc2ccccn2)cc1,34.3
10,COC(=O)c1sccc1NC(=O)c1ccc(C)s1,17.3
11,O=C(O)c1cccc(NS(=O)(=O)c2ccc(C3CCCCC3)cc2)c1,14.3
12,CC(C)[C@H](NC(N)=O)C(=O)Nc1cccc([N+](=O)[O-])c1,15.2
13,COc1cccc(NC(=O)Cn2c(=O)oc3ccccc32)c1,7.37
14,CC1CCN(c2cc(N(C)CCO)c([N+](=O)[O-])c3nonc23)CC1,-7.64
15,O=C1NC[C@@H](Cc2ccc(O)cc2)N(CCc2cccc(F)c2)C1=O,16.6
16,COc1ccc(CCN(Cc2ccccn2)C(=S)Nc2ccc(C)cc2)cc1OC,-29.5
17,O=C(NN1C(=O)C2C3c4ccccc4C(c4ccccc43)C2C1=O)c1ccc(Cl)cc1 (stereo not drawn),-8.19
18,COc1ccc(-c2c3c(=O)n(C)c(=O)n(C)c3cn2-c2ccc(O)cc2)cc1,-35.2
19,Cc1cc(-c2csc(N)n2)c(C)n1Cc1ccco1,18.2
20,CC(=O)Nc1ccc(S(=O)(=O)NCCC(=O)Nc2ncccc2C)cc1,9.81
21,CC(=O)c1c(C)[nH]c(C(=O)COC(=O)c2ccc3c(=O)n4c(nc3c2)CCC4)c1C,-0.297

row,SMILES,"hERG current change (%, negative = inhibition) at 10uM [%]"
1,C/C(=N/NC(=O)c1ccc2c(c1)OCO2)c1ccc(NC(=O)c2ccc(F)cc2)cc1,9.33
2,O=C1CCC(C(=O)OCc2cc(=O)oc3ccc4ccccc4c23)=NN1,-1.4
3,O=C1CS/C(=N\N=C\c2ccccc2Cl)N1CC1CC1,12.3
4,CCCCn1c(=O)c(C(=O)OCC)c(O)c2ccccc21,2.18
5,c1ccc(-c2nc3nc4ccccc4nc3n2Cc2ccco2)cc1,-61.2
6,O=C(NC1CCCC1)c1cccc(S(=O)(=O)Nc2ccccc2F)c1,-0.783
7,CC1CCN(C(=O)C2CCN(C(=O)c3ccc(C(C)(C)C)cc3)CC2)CC1,-18.6
8,COc1ccc(C(=O)NC(NC(=S)Nc2ccc(S(N)(=O)=O)cc2)C(Cl)(Cl)Cl)cc1 (stereo not drawn),12.3
9,Cc1ccc(N(CCC#N)C(=O)COC(=O)c2nc3nc(C)cc(C)n3n2)cc1,2.88
10,CC(=O)NC(CC(=O)Nc1nc(C)cs1)c1ccccc1 (stereo not drawn),14.1
11,CCOC(=O)N1CCC(NC(=O)c2cc(COc3ccccc3SC)on2)CC1,4.39
12,Brc1[nH]nc2ccccc12,-33.6
13,Cc1ccsc1C(C(=O)NCc1ccccc1)N(C(=O)c1csnn1)c1ccccc1 (stereo not drawn),18.1
14,CC(=O)NCCNC(=O)c1oc2ccccc2c1CSc1ncn[nH]1,21.8
15,Cc1cccc(-n2nnc(C(=O)N3CCc4ccccc4C3)c2N)c1,-12.2
16,COc1cccc(Cn2cnc3c(NS(=O)(=O)c4cccc(Cl)c4Cl)c(C)c(C)cc32)c1,9.93
17,CCc1cc(C(=O)Nc2ccccc2N2CCOCC2)sc1C,-3.13
18,[O-]/C(=C(\C(=S)Nc1cccc2ccccc12)[n+]1ccccc1)c1ccc2c(c1)OCCO2,-18.7
19,c1ccc(C2c3[nH]c4ccccc4c3CCN2Cc2cccn2-c2cccnc2)nc1 (stereo not drawn),-23.7
20,COc1ccc(C(=O)NC2CC3CCCC(C2)N3Cc2ccccc2)c(OC)c1 (stereo not drawn),-26.5
21,O=C(O)c1ccccc1/C=N/NC(=S)NCc1ccccc1,3.74

row,SMILES,"hERG current change (%, negative = inhibition) at 10uM [%]"
1,O=C(COc1ccc(Cl)cc1)Nc1ccccc1C(=O)NCc1cccnc1,-5.76
2,COC(=O)c1c(C(=O)OC)c(-c2ccc(C(C)(C)C)cc2)n2c1CS(=O)C2 (stereo not drawn),11
3,CCN1CCN(Cc2cc(OC)c(OC)cc2[N+](=O)[O-])CC1,8.59
4,Cc1ccccc1OCC(=O)NCCC1=CCCCC1,-18.9
5,COc1ccc(-c2sc3ccc(OC)cc3c2-c2ccc(OC)c(F)c2)cc1,9.59
6,NC(=O)CC(NC(=O)c1ccc(Br)cc1)c1ccc(NC2CCCCCC2)c([N+](=O)[O-])c1 (stereo not drawn),23.9
7,Cc1cccc(-c2ncc(CN3CCC(CO)(CCCc4ccccc4)CC3)cn2)c1,-54.1
8,CC(=O)c1cccc(N(CC(=O)NC2CCCCC2)C(=O)CNC(=O)c2cccs2)c1,3.36
9,NC(=O)COC(=O)c1cccc(S(=O)(=O)N2CCCc3ccccc32)c1,-4.32
10,Cc1cccc(N=C2NC(=O)/C(=C/c3cccn3C)S2)c1C,10.5
11,O=c1c(-c2ccccc2)c(O)nc2ccccn12,9.42
12,O=C(NCCCN1CCN(c2cccc(Cl)c2)CC1)C1(S(=O)(=O)c2ccc(Cl)cc2)CC1,-71
13,O=C(COC(=O)C1CC(O)CN1S(=O)(=O)c1ccccc1[N+](=O)[O-])c1ccc[nH]1 (stereo not drawn),-7.03
14,O=C(CN1CCOCC1)N/N=C/c1ccc(-c2ccc(C(=O)O)cc2)o1,-12
15,COc1ccc(NC(=O)C(c2ccc(C)cc2)N(C)C(=O)CC2NC(=O)NC2=O)cc1 (stereo not drawn),-4.95
16,O=C(NCc1ccc(F)cc1)C1CCCN1C(=O)NCc1ccccc1 (stereo not drawn),-25.8
17,CCOC(=O)CNc1c(-c2ccc(F)cc2)nc2cnccn12,-22.4
18,CCOC(=O)c1ccc(-n2c(N)c(C(=O)NCC3CCCO3)sc2=S)cc1 (stereo not drawn),-8.81
19,C=CCN1C(=O)C(Cc2cccc(Cl)c2)S/C1=N/N=C/c1ccco1 (stereo not drawn),-0.129
20,COc1ccccc1NC(=O)c1cc(N2C(=O)C3C4CCC(C4)C3C2=O)ccc1Cl (stereo not drawn),-48.2
21,Cc1ccc(S(=O)(=O)NC(=O)Nc2cccc([N+](=O)[O-])c2)cc1,7.24

row,SMILES,"hERG current change (%, negative = inhibition) at 10uM [%]"
1,CCN(CC)c1ccc(N=Cc2c(O)n(CCC3=CCCCC3)c(=O)[nH]c2=O)cc1,15.1
2,C=C(C(=O)Oc1c(C(C)(C)C)cccc1C(C)(C)C)c1ccccc1,15.4
3,O=C(NCc1cccnc1)c1cccc(OC2CCN(Cc3ccc(CO)o3)CC2)c1,18.5
4,Cc1ccc(S(=O)(=O)N2CCN(C(=O)C3CCN(C(=O)c4ccccc4C)CC3)CC2)cc1C,-12.8
5,O=C(c1cccc(S(=O)(=O)N2CCOCC2)c1)N(Cc1ccco1)Cc1cccs1,-68.5
6,CN(C)C(C)(C)/C=C/C(O)(c1ccccc1)c1ccccc1,-36.6
7,O=C(Cn1cnc(S(=O)(=O)N2CCCCC2)c1)N1CCN(c2ccc([N+](=O)[O-])cc2)CC1,-29.3
8,O=C(NCc1ccccn1)c1cc(-c2ccc(-c3ccccc3)cc2)nc2ccccc12,11.4
9,Cc1cccc(N(Cc2cc3ccccc3[nH]c2=O)S(=O)(=O)c2ccccc2)c1,2.04
10,Cc1cc(=O)[nH]c(SCc2nc3ncccn3c2Br)n1,14.6
11,CCCN1CCC(NC(=O)Nc2ccc([N+](=O)[O-])cc2)CC1,-32.2
12,C[C@H](NC(=O)OC(C)(C)C)c1nnc(SCC(=O)c2ccc(Cl)cc2)o1,-19.6
13,Clc1ccc(-c2cc(CSc3cccc(Cl)c3)on2)cc1,-5.98
14,Cc1nc(N2CCCC2)c2nnn(Cc3ccccc3Cl)c2n1,4.29
15,O=C(C1CCCN(S(=O)(=O)c2ccccc2)C1)N1CCCCC1 (stereo not drawn),7.94
16,CCCn1c(SCC(=O)N2c3ccccc3Sc3ccccc32)nc2c1c(=O)n(C)c(=O)n2C,-17.7
17,Cc1ccc(C)c(OC(=O)c2ccncc2)c1,2.46
18,c1ccc(C2(CNc3ccccn3)CCCC2)cc1,-70.3
19,Cc1ccc(SC[C@H](Cc2ccccc2)N2CCN(CCc3ccccc3)CCC2=O)cc1,-17.9
20,O=C(NCC1COc2ccccc2O1)C1CCC(CNc2c(N3CCCCC3)c(=O)c2=O)CC1 (stereo not drawn),-5.05
21,CC(C)Cc1nc(SCC(=O)NCC2CCCO2)c2c(=O)n(C)c(=O)n(C)c2n1 (stereo not drawn),-0.141
